Results on six molecules are retold here after article PMC12136788.

The other results are listed elsewhere or left out.

First the molecules themselves.
B1: chrX:117043865:117043866:-_ENSG00000003096_ENST00000371882|hu_mus|FALSE|FALSE (ssRNA)
RNA: GGGAGUUCUACAGUCCGACGAUCGCGAAGCCAGCGACAGGUAGCUUUGAAGAGGUCAAGUUCGGUGCAGCGCUUAAGGCUGUUGCUGGACAGGACAAAGGCAAGGCGCUCGAAGGGAAGCUUCAGGAACUCCCCAGUGCUCAGCAACAGAGGAUUGAGCAUCA
B2: chr5:137354059:137354060:-_ENSG00000031003_ENST00000033079|hu_mus|FALSE|FALSE (ssRNA)
RNA: GGGAGUUCUACAGUCCGACGAUCGUGAAUAUGCAAGCUGCCAGGUAUGACGGGCUCAGGGAGCUCCUGCAGGAAAAACCUAAGGAGACUAAUGGCUGAGGGGACGUCCGCUUCCUUAACCAAGUCCACCUCUUCUCCACUGUCCAACAGAGGAUUGAGCAUCA
B3: chr2:173053163:173053164:-_ENSMUSG00000038400_ENSMUST00000036248|mus_hu|FALSE|FALSE (ssRNA)
RNA: GGGAGUUCUACAGUCCGACGAUCGUGCAUUCAGACCAGACAUCACAUGUAAAUAUUUAUACACAGGGAGGUGGGAGGGGAGGGCCACACGAUGCGUUGCUGCGCCCCCCGCCUUCCUCUCACUCCUCUUCUAAGAAGCGCGGACAACAGAGGAUUGAGCAUCA
B4: chr3:9412954:9412955:+_ENSG00000134077_ENST00000452837|hu_mus|hu_hu_hu_mus_False|8_28 (ssRNA)
RNA: GGGAGUUCUACAGUCCGACGAUCGGUUGAUAUCUCUUCUUUGAUGGCUGGAUUUUCAUAAUAGUCCAAGAUAUGUGAAUCUGAAGUGCUGCUGGCAUGCUUUUUCUUAACAUUUCUCUCAUCUGCUUUGACUUCUUGUCCACACAACAGAGGAUUGAGCAUCA
B5: chr11:77340908:77340909:-_ENSG00000074201_ENST00000525064|hu_hu|hu_hu_hu_mus_True|38_38 (ssRNA)
RNA: GGGAGUUCUACAGUCCGACGAUCGUUUGGAUCCCUGGACACCGCAUGUAAACUAAUGGUGGGGUAUUCCAGUGAGAAUCCUAAUCCCGAACCAUCUAACCAAGACAGGCGGCUCUCCGCGAUGUAAAGCGUGCCGGUGCCGAGCAACAGAGGAUUGAGCAUCA
B6: chr19:36949789:36949790:+_ENSMUSG00000024811_ENSMUST00000025729|mus_mus|FALSE|FALSE (ssRNA)
RNA: GGGAGUUCUACAGUCCGACGAUCAUGUAAAGGAAUGAGUCCUCCUUUGUCCUGGGCAUUCACAUCAGCUCCAUGUUGCAAUAAAUACUCAGCAACUUCCAAGUUAUUAUAACCAGCUGCCAAAUGUAAAGGUGUAGAAUGCCGCAACAGAGGAUUGAGCAUCA

In this assay the target is T1, UNK ZnF1-3 (human, UniProt Q9C0B0 31-174).
T1 sequence: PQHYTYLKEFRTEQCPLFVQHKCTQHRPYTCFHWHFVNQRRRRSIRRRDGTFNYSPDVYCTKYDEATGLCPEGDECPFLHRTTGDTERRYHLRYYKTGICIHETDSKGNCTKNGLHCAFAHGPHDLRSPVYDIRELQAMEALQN
The assay is described as follows: nsRBNS (natural sequence RNA bind-n-seq); RBNS binding buffer (assumed for nsRBNS): 25 mM Tris pH 7.5, 150 mM KCl, 3 mM MgCl2, 0.01% Triton X-100, 500 ug/ml BSA, 20 U/ml SUPERase-In, 4 C; UNK is unkempt and MSI1 is Musashi-1; names of the RNAs are library labels; protein concentration not given here; high values mean tight binding.
The molecule B1 registered a binding signal of 1.12 enrichment R. To B2 belongs 0.886 enrichment R; to B3, 0.678 enrichment R; to B4, 0.312 enrichment R. To B5 belongs 0.716 enrichment R. To B6 belongs 0.603 enrichment R.
